Assay results from patent US10758569B2, “Heteroaryl disulfide compounds as allosteric effectors for increasing the oxygen-binding affinity of hemoglobin” (The General Hospital Corporation, priority 2014, dated 2020).

Experiments:
hemoglobin = biological target: T1, hemoglobin (Homo sapiens, UniProt P68871+P69905); assay: Oxygen dissociation curve (ODC) of purified hemoglobin, HEMOX analyzer; format: biochemical; details: for % met Hb / P50 of purified Hb: hemoglobin 20 μM; for % met Hb / n50: compound 120 μM; for n50: purified Hb 20 μM; for P50 of purified Hb: added compound 120 μM, no unit in table (text gives P50 in Torr)
T1 construct: from tissue; host or cells: outdated donated human red blood cells (hemolysate supernatant, dialysed against DPBS)
Description: The ODC of hemoglobin with Compound 1 was measured to determine the increase of oxygen binding affinity of hemoglobin (FIG. 2A). […] Incubation of hemoglobin with Compound 1 reduced the Bohr effect (the increase of the P50 of hemoglobin induced by decreasing the pH).

whole blood = assay: ODC (P50) of whole blood; details: hemoglobin 20 μM, compound 120 μM; no unit in table
Solubility (Table 3) = format: physicochemical; details: solvents (concentration where printed)

Compound	% met Hb (hemoglobin)	n50 (hemoglobin)	P50 of whole blood (whole blood)	P50 of purified Hb (hemoglobin)	Solubility (Solubility (Table 3))
c1coc(-c2nnc(SSc3nnc(-c4ccco4)[nH]3)[nH]2)c1 [Compound 4, 1,2-bis(5-(furan-2-yl)-4H-1,2,4-triazol-3-yl)disulfane]	3.6%	2.71	9.75	–	–
c1csc(SSc2nccs2)n1 [Compound 5, 1,2-di(thiazol-2-yl)disulfane]	–	–	13.95	7.88	–
Nc1nnc(SSc2nnc(N)s2)s1 [Compound 6, 5,5′-disulfanediylbis(1,3,4-thiadiazol-2-amine)]	4.1%	2.71	13.79	5.35	DMSO
Oc1cnc(SSc2ncc(O)[nH]2)[nH]1 [Compound 7, 2,2′-disulfanediylbis(1H-imidazol-5-ol)]	–	–	–	16.2	–
c1nnc(SSc2nnc[nH]2)[nH]1 [Compound 8, 1,2-di(4H-1,2,4-triazol-3-yl)disulfane]	5.3%	2.85	5	4.54	DMSO
c1nn[nH]c1SSc1cnn[nH]1 [Compound 9, 1,2-di(1H-1,2,3-triazol-5-yl)disulfane]	4.2%	2.85	6.6	5.87	DMSO, PG (0.5M) PEG-400 (0.5M)
c1ccc(-n2nnnc2SSc2nnnn2-c2ccccc2)cc1 [Compound 10, 1,2-bis(1-phenyl-1H-tetrazol-5-yl)disulfane]	–	2.81	–	16.85	DMSO
